Laboratory results taken from the supplement of paper PMC4604168 (melanoma cell lines).
The list shows a part of the results. Many values rest on one well or one pass, so single values are uncertain.

Assays:
Experiment in all cases: cell count relative to DMSO control; melanoma cells; higher = more viable cells
Settings in all cases: library dose: low library concentration; 72 h
COLO792 = system: COLO792
COLO800 = system: COLO800
COLO829 = system: COLO829
G361 = system: G361
IPC-298 = system: IPC-298
IST-MEL1 = system: IST-MEL1
LB2518-MEL = system: LB2518-MEL
LOXIMVI = system: LOXIMVI
MEL-HO = system: MEL-HO
MZ2-MEL = system: MZ2-MEL
MeWo = system: MeWo
RPMI7951 = system: RPMI7951
RVH-421 = system: RVH-421
SkMel28 = system: SkMel28
SkMel2 = system: SkMel2
SkMel30 = system: SkMel30
SkMel5 = system: SkMel5
UACC257 = system: UACC257
UACC62 = system: UACC62
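Further: cell number obtained by counting DAPI-stained nuclei in high-throughput microscope images with image analysis software, screen run in 1,536-well plates.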

| SMILES | cell count (COLO792) | cell count (COLO800) | cell count (COLO829) | cell count (G361) | cell count (IPC-298) | cell count (IST-MEL1) | cell count (LB2518-MEL) | cell count (LOXIMVI) | cell count (MEL-HO) | cell count (MZ2-MEL) | cell count (MeWo) | cell count (RPMI7951) | cell count (RVH-421) | cell count (SkMel28) | cell count (SkMel2) | cell count (SkMel30) | cell count (SkMel5) | cell count (UACC257) | cell count (UACC62) |
| --- | --- | --- | --- | --- | --- | --- | --- | --- | --- | --- | --- | --- | --- | --- | --- | --- | --- | --- | --- |
| N.N.[Cl][Pt][Cl] [cisplatin] + C/C(O)=C(\C#N)C(=O)Nc1cc(Br)ccc1Br [LFM-A13] (first compound 1.6 µM, partner dose 2 µM) | 92% | 52.8% | 109% | 95.4% | 97.9% | 95.1% | 95.6% | 99.3% | 94.2% | 101% | 101% | 97.2% | 107% | 90.8% | 86.5% | 91.6% | 89.7% | 84.6% | 92.9% |
| C[As](C)SC[C@H](NC(=O)CC[C@H](N)C(=O)O)C(=O)NCC(=O)O [Darinaparsin] + CN(NC(=O)CC(=O)NN(C)C(=S)c1ccccc1)C(=S)c1ccccc1 [STA4783] (first compound 0.4 µM, partner dose 0.006 µM) | 66.8% | 57.9% | 74.6% | 62.3% | 90.1% | 78.2% | 71.7% | 92% | 98.8% | 101% | 97.8% | 86.3% | 67.1% | 76.2% | 101% | 92% | 95% | 79.8% | 88.6% |
| Cn1cc(C2=C(c3cn(C4CCN(Cc5ccccn5)CC4)c4ccccc34)C(=O)NC2=O)c2ccccc21 [Enzastaurin] + O=c1cc(-c2cccc3c2Sc2ccccc2S3)oc(N2CCOCC2)c1 [KU55933] (first compound 0.8 µM, partner dose 1 µM) | 83% | 60% | 115% | 90.6% | 98.5% | 105% | 120% | 137% | 95.7% | 96.6% | 107% | 94.5% | 87.6% | 111% | 101% | 104% | 106% | 87.9% | 90.6% |
| Cn1cc(C2=C(c3cn(C4CCN(Cc5ccccn5)CC4)c4ccccc34)C(=O)NC2=O)c2ccccc21 [Enzastaurin] + Cn1cncc1[C@@](N)(c1ccc(Cl)cc1)c1ccc2c(c1)c(-c1cccc(Cl)c1)cc(=O)n2C [tipifarnib] (first compound 0.8 µM, partner dose 0.01 µM) | 108% | 67.7% | 119% | 109% | 110% | 103% | 74.8% | 115% | 102% | 99.1% | 110% | 98.5% | 90.7% | 84.7% | 94.5% | 117% | 97.4% | 82.8% | 64.5% |
| N.N.[Cl][Pt][Cl] [cisplatin] + Cc1cc(N2CCOCC2)cc2[nH]c(-c3c(NC[C@@H](O)c4cccc(Cl)c4)cc[nH]c3=O)nc12 [BMS536924] (first compound 1.6 µM, partner dose 0.2 µM) | 88.5% | 75.3% | 91.1% | 102% | 90.8% | 95.8% | 67.3% | 124% | 96.6% | 99.4% | 93.3% | 104% | 97.1% | 107% | 93.6% | 88.9% | 94.5% | 97.6% | 110% |
| N.N.[Cl][Pt][Cl] [cisplatin] + O=C(Nc1cccc(Cl)c1)Nc1ncc(CCNc2ncnc3ccsc23)s1 [SNS314] (first compound 1.6 µM, partner dose 0.0008 µM) | 98.8% | 71.9% | 123% | 102% | 98.4% | 93.9% | 98.8% | 102% | 107% | 102% | 96.1% | 112% | 96.8% | 111% | 97% | 131% | 102% | 97.7% | 84.8% |
| Cn1cc(C2=C(c3cn(C4CCN(Cc5ccccn5)CC4)c4ccccc34)C(=O)NC2=O)c2ccccc21 [Enzastaurin] + Cc1cc(SCc2sc(-c3ccc(C(F)(F)F)c(F)c3)nc2C)ccc1OCC(=O)O [GW0742] (first compound 0.8 µM, partner dose 2 µM) | 109% | 127% | 103% | 96.2% | 105% | 103% | 93.5% | 114% | 91.4% | 98.1% | 100% | 84.4% | 94.9% | 87.5% | 97.3% | 129% | 98.7% | 105% | 98.4% |
| Cn1cc(C2=C(c3cn(C4CCN(Cc5ccccn5)CC4)c4ccccc34)C(=O)NC2=O)c2ccccc21 [Enzastaurin] + O=C(CCCCCCC(=O)Nc1ccccc1)NO [vorinostat] (first compound 0.8 µM, partner dose 0.08 µM) | 85.5% | 150% | 95.3% | 82.5% | 102% | 96.1% | 96.5% | 69.6% | 95.6% | 103% | 106% | 92.2% | 100% | 92.3% | 96.4% | 95% | 0.527% | 104% | 81.4% |
| N.N.[Cl][Pt][Cl] [cisplatin] + O=c1cc(-c2cccc3c2Sc2ccccc2S3)oc(N2CCOCC2)c1 [KU55933] (first compound 1.6 µM, partner dose 1 µM) | 89.5% | 105% | 113% | 96.9% | 106% | 103% | 96.9% | 102% | 97.4% | 107% | 101% | 116% | 90.2% | 86.5% | 99.7% | 108% | 98.8% | 113% | 105% |
| C[As](C)SC[C@H](NC(=O)CC[C@H](N)C(=O)O)C(=O)NCC(=O)O [Darinaparsin] + NC(=O)Nc1cc(-c2cccc(F)c2)sc1C(=O)N[C@H]1CCCNC1 [AZD7762] (first compound 0.4 µM, partner dose 0.02 µM) | 92.5% | 107% | 104% | 99% | 103% | 114% | 144% | 83.6% | 121% | 118% | 102% | 124% | 105% | 79.5% | 115% | 101% | 101% | 92.6% | 83.5% |
| C[As](C)SC[C@H](NC(=O)CC[C@H](N)C(=O)O)C(=O)NCC(=O)O [Darinaparsin] + COc1cc(Nc2ncc(F)c(Nc3ccc4c(n3)NC(=O)C(C)(C)O4)n2)cc(OC)c1OC [Tamatinib] (first compound 0.4 µM, partner dose 0.4 µM) | 65.4% | 85.7% | 86% | 96.8% | 76.9% | 99% | 68.6% | 59.5% | 92% | 91.5% | 81.9% | 83.7% | 116% | 64.4% | 96.7% | 83.5% | 90.5% | 65.5% | 90.2% |
| N.N.[Cl][Pt][Cl] [cisplatin] + CCc1ccc(CCOc2ccc(CC3SC(=O)NC3=O)cc2)nc1 [pioglitazone] (first compound 1.6 µM, partner dose 2 µM) | 108% | 91.6% | 53.8% | 65.2% | 68.4% | 87.4% | 71.5% | 77% | 87.2% | 64.2% | 98.8% | 69.5% | 86.8% | 84.7% | 40% | 87% | 91.7% | 90.5% | 89.7% |
| Cn1cc(C2=C(c3cn(C4CCN(Cc5ccccn5)CC4)c4ccccc34)C(=O)NC2=O)c2ccccc21 [Enzastaurin] + O=C(Oc1ccc([N+](=O)[O-])cc1)N1CCC(C(O)(c2ccc3c(c2)OCO3)c2ccc3c(c2)OCO3)CC1 [JZL184] (first compound 0.8 µM, partner dose 1 µM) | 111% | 113% | 101% | 99.9% | 101% | 101% | 109% | 78.2% | 103% | 92.3% | 115% | 97.1% | 86.8% | 92.3% | 109% | 107% | 88.5% | 86.5% | 115% |
| N.N.[Cl][Pt][Cl] [cisplatin] + COc1ccc2c(c1)CCC1C2CCC2(C)C(NCCCCCCN3C(=O)C=CC3=O)CCC12 [U73122] (first compound 1.6 µM, partner dose 0.4 µM) | 107% | 144% | 84.8% | 83.4% | 102% | 96.8% | 102% | 85.2% | 95.2% | 97.8% | 83.3% | 86.3% | 109% | 113% | 101% | 90.8% | 94.9% | 101% | 86% |
| Cn1cc(C2=C(c3cn(C4CCN(Cc5ccccn5)CC4)c4ccccc34)C(=O)NC2=O)c2ccccc21 [Enzastaurin] + CN(C)S(=O)(=O)c1ccc2c(c1)/C(=C/c1cc3c([nH]1)CCCC3)C(=O)N2 [SU6656] (first compound 0.8 µM, partner dose 0.4 µM) | 89.6% | 67.6% | 99.6% | 96.7% | 105% | 95.4% | 86.5% | 92.6% | 99.6% | 108% | 111% | 94% | 85% | 96.6% | 103% | 108% | 85.7% | 87.9% | 80.5% |
| Cn1cc(C2=C(c3cn(C4CCN(Cc5ccccn5)CC4)c4ccccc34)C(=O)NC2=O)c2ccccc21 [Enzastaurin] + Cc1cc(N2CCOCC2)cc2[nH]c(-c3c(NC[C@@H](O)c4cccc(Cl)c4)cc[nH]c3=O)nc12 [BMS536924] (first compound 0.8 µM, partner dose 0.2 µM) | 85.7% | 58.7% | 125% | 85.3% | 100% | 97.4% | 84.9% | 112% | 102% | 98.5% | 97.3% | 102% | 92.8% | 94.1% | 102% | 91.3% | 92.6% | 88.1% | 95.4% |
| Cn1cc(C2=C(c3cn(C4CCN(Cc5ccccn5)CC4)c4ccccc34)C(=O)NC2=O)c2ccccc21 [Enzastaurin] + COc1ccc2c(c1)CCC1C2CCC2(C)C(NCCCCCCN3C(=O)C=CC3=O)CCC12 [U73122] (first compound 0.8 µM, partner dose 0.4 µM) | 93.8% | 124% | 102% | 96.3% | 99.7% | 104% | 83.9% | 72.7% | 95% | 92.8% | 104% | 104% | 152% | 86.6% | 106% | 92.4% | 94.5% | 70.7% | 89% |
| C[As](C)SC[C@H](NC(=O)CC[C@H](N)C(=O)O)C(=O)NCC(=O)O [Darinaparsin] + CC1(C)NC(=O)N(c2ccc([N+](=O)[O-])c(C(F)(F)F)c2)C1=O [nilutamide] (first compound 0.4 µM, partner dose 1 µM) | 109% | 87.3% | 117% | 91.8% | 105% | 96.5% | 89.1% | 89.4% | 88.3% | 100% | 96.3% | 93.8% | 101% | 96.1% | 99.5% | 91.2% | 101% | 82.2% | 84.6% |
